# Inconclusive means that the source gave no clear call. Such entries were picked first, then a sample of the others. For some of these results: No potency is given beside an inconclusive call; the fits are too rough. Calls of active or inactive are those of the source. Calls come from the whole dose curve; as a rule, active = well fitted curve in the direction sought with a large enough effect; inconclusive = small, poorly fitted or top-dose-only effect, or another doubt; inactive = no such curve, though single readings can be large; an effect the other way counts as inactive or inconclusive.
# What was measured:
# [1] = qHTS of pediatric cancer cell lines to identify multiple opportunities for drug repurposing: Primary screen for BT-12 cells (AID 1347101); note: nearly all actives have a fitted effect of over 25% in size; note: potency is the fitted concentration of half-maximal effect
# Procedure, shortened: (§1)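 Cells (500-1,000/well) rested 5 h, then received compounds for 48 h; metabolically active cells were measured by CellTiter-Glo luminescence. Final concentrations spanned up to 46 µM (MIPE, 11-point) or 0.59 nM-46 µM (NPC, 8-point) in primary screens, 11-point in follow-ups.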
# [2] = qHTS of pediatric cancer cell lines to identify multiple opportunities for drug repurposing: Primary screen for RD cells (AID 1347104); note: nearly all actives have a fitted effect of over 55% in size; note: potency is the fitted concentration of half-maximal effect
# Procedure, shortened: (§2)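 Luminescence from CellTiter-Glo served as readout of metabolically active cells after 48 h compound exposure. Titrations: MIPE 11-point, from 0.78 nM; NPC 8-point, from 0.59 nM (final). Concentration-response curves came straight from the primary screen.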
# [3] = qHTS of pediatric cancer cell lines to identify multiple opportunities for drug repurposing: Primary screen for MG 63 (6-TG R) cells (AID 1347105); conditions: MG 63 (6-TG R) viability, CellTiter-Glo, 48 h; activity change, negative = cytotoxic: at 46 µM (top of the series); note: potency is the fitted concentration of half-maximal effect; nearly all actives have a fitted effect of over 50% in size
# Procedure, shortened: as §2
# [4] = qHTS of pediatric cancer cell lines to identify multiple opportunities for drug repurposing: Primary screen for LAN-5 cells (AID 1347100); conditions: LAN-5 neuroblastoma viability, CellTiter-Glo luminescence, 48 h; activity change, negative = cytotoxic: at 46 µM (top of the series); note: potency is the fitted concentration of half-maximal effect
# Procedure, shortened: (§3)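 Viability after 48 h compound treatment at 37C, 500-1,000 cells/well, read as ATP luminescence with CellTiter-Glo. Primary screens used 11-point (MIPE, 0.78 nM-46 µM) or 8-point (NPC, 0.59 nM-46 µM) final concentrations; follow-up screens used 11-point dilutions.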
# [5] = qHTS of pediatric cancer cell lines to identify multiple opportunities for drug repurposing: Primary screen for Rh18 cells (AID 1347102); conditions: Rh18 rhabdomyosarcoma viability, CellTiter-Glo luminescence, 48 h; activity change, negative = cytotoxic: at 46 µM (top of the series); note: nearly all actives have a fitted effect of over 65% in size; note: potency is the fitted concentration of half-maximal effect
# Procedure, shortened: as §3
# [6] = qHTS of pediatric cancer cell lines to identify multiple opportunities for drug repurposing: Primary screen for control Hh wild type fibroblast cells (AID 1347106);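 note: a drop in luminescence marks cytotoxicity and a rise apparent proliferation; nearly all actives have a fitted effect of over 55% in size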
# Procedure, shortened: as §3
# [7] = qHTS of pediatric cancer cell lines to identify multiple opportunities for drug repurposing: Primary screen for OHS-50 cells (AID 1347103); note: nearly all actives have a fitted effect of over 40% in size; note: potency is the fitted concentration of half-maximal effect
# Procedure, shortened: as §1
# Tags give direction and shape of the fitted curve.
smiles,measurement,setting,value
COc1c2occc2c(OC)c2c(=O)cc(C)oc12,Potency,[1],inactive
COc1cc(Nc2ncc(F)c(Nc3ccc4c(n3)N(COP(=O)(O)O)C(=O)C(C)(C)O4)n2)cc(OC)c1OC,Potency,[1],"inconclusive [cytotoxic, partial curve]"
same,Potency,[2],active: 3.32 µM
same,Potency,[3],active: 0.935 µM
O=C1NCN(c2ccccc2)C12CCN(CCCC(c1ccc(F)cc1)c1ccc(F)cc1)CC2,Potency,[4],"inconclusive [cytotoxic, single point]"
same,Potency,[5],"inconclusive [cytotoxic, single point]"
same,Potency,[6],inactive
O=c1n(CCCN2CCN(c3cccc(Cl)c3)CC2)nc2ccccn12,Potency,[1],inactive
O=C(Nc1ccc(Oc2ccnc3[nH]ccc23)c(F)c1)c1cccn(-c2ccc(F)cc2)c1=O,Potency,[4],inactive
same,Potency,[7],"inconclusive [cytotoxic, full curve]"
CC(=O)OCC(=O)[C@@]12N=C(C)O[C@@H]1C[C@H]1[C@@H]3CCC4=CC(=O)C=C[C@]4(C)[C@H]3[C@@H](O)C[C@@]12C,Potency,[4],inactive
same,Potency,[7],inactive
same,Potency,[2],inactive
C#C[C@]1(O)CC[C@H]2[C@@H]3[C@H](C)CC4=C(CCC(=O)C4)[C@H]3CC[C@@]21C,Potency,[1],"inconclusive [cytotoxic, partial curve, poor fit]"
same,Potency,[7],inactive
C[N+]1(C)CCCC(OC(=O)C(O)(c2ccccc2)c2ccccc2)C1 (centres undefined),Potency,[1],inactive
same,Potency,[5],inactive
Cc1ccc(NC(=O)c2cccc(N(C)C)c2)cc1NC(=O)c1ccc(O)cc1,Potency,[1],"inconclusive [cytotoxic, partial curve, poor fit]"
same,Potency,[3],"inconclusive [cytotoxic, single point]"
